Measured values as given in PubChem BioAssay AID1963844 (Molecular Pharmacology Branch, DTP, NCI, 2024).
A number of entries come with more than one value. This list holds those alone. The source may hold further records. Values given together are repeated measurements in other runs, samples, wells, individuals or studies. Additions like (4×) give the number of equal values in this list. A date in brackets names the month of the test.

Tested on: 422866-222-R5-J1-PDC complex spheroid viability
Test: Anticancer human tumor 422866-222-R5-J1-PDC patient-derived pancreatic adenocarcinoma cell line growth inhibition [POLQ]
Settings: for viability, T/C: stronger effect = lower value
Procedure: Multicellular complex tumor spheroid response to Polymerase (POL) inhibitors (novobiocin, ART-558, RP6685) in combination with a variety of drugs and investigational agents in selected tumor cell lines
The POL inhibitors (novobiocin, ART-558, and RP6685) were evaluated both individually and in combination with standard of care and investigational anticancer small molecules within a complex spheroid model of solid tumors. . Complex spheroids include a stromal component modeled by human endothelial cells (HUVEC) and fibroblasts modeled by human mesenchymal stem cells (MSCs). The concentration ranges selected for each drug and investigational agent were based upon clinically achievable concentrations if the clinical Cmax of the agent was known.
Compounds. The drugs and investigational agents: novobiocin (NSC847541), ART-558 (NSC835418), RP-6685 (NSC848927), peposertib (NSC802822), ceralasertib (NSC780249), elimusertib (NSC800525), camonsertib (NSC841442), AZD-1390 (NSC803789), olaparib (NSC753686), talazoparib (NSC767125), rucaparib (NSC756644), sotorasib (NSC818433), MRTX-1133 (NSC836407), SN-38 (NSC673596), topotecan (NSC609699), epotoside (NSC141540), doxorubicin (NSC123127), gemcitabine (NSC613327), 5-fluorouracil (NSC19893), paclitaxel (NSC125973), vemurafenib (NSC761431), MSA-2 (NSC828583), SN-011 (NSC837082), adavosertib (NSC754352), prexasertib (NSC758257), carboplatin (NSC241240) and oxaliplatin (NSC266046), were obtained from the National Cancer Institute (NCI) Developmental Therapeutics Program Chemical Repository (21). The FDA-approved anticancer drug set is available from the Developmental Therapeutics Program at https://dtp.cancer.gov/organization/dscb/obtaining/. […] The stock solutions were prepared in dimethyl sulfoxide (DMSO, Sigma-Aldrich, St. Louis, MO, cat. D2650), except for the platinum compounds which were prepared in saline (Quality Biological, Gaithersburg, MD, cat. 114-055-101), at 800-fold the tested concentration and stored at -70 degrees C prior to their use. All drugs and investigational agents were tested over a range starting from a high concentration at or near the clinical Cmax and decreasing in half-log increments. If the clinical Cmax for an agent had not been determined, the highest concentration tested was 10 microM, except for SN-38, which was tested at a high concentration of 1 microM.
Cell Culture. All cells were maintained in an incubator at 37 degrees C and 5% CO2 with 95% humidity. The PDC lines were cultured according to standard operating procedures established by the NCI PDMR (https://pdmr.cancer.gov). Table 3 of the manuscript, lists the cell lines along with the number of the three cell types plated to form the mct-spheroids and media for tumor cell growth. After thawing, all PDC lines, except 997537-175-T-J1-PDC and 415267-285-R-J2-PDC, were cultured in Matrigel-coated flasks prepared with a working solution of 1X Ham's F-12 nutrient mix, without supplementation (Thermo Fisher Scientific, cat. 11765054), 100 U/mL penicillin-streptomycin (Thermo Fisher Scientific, cat. 15140122), and 2.5% Matrigel (Corning Inc., Corning, NY, cat. 354248) for the first three passages. The two PDC lines 997537-175-T-J1-PDC and 415267-285-R-J2-PDC were cultured on uncoated flasks. The 857933-349-R-J2-PDC line was cultured in 6C/Colon 1B media containing advanced DMEM/F-12 (Thermo Fisher Scientific, cat. 12634028), 10 mM HEPES (Thermo Fisher Scientific, cat. 15630080), 1X GlutaMAX supplement (Thermo Fisher Scientific, cat. 35050061), 0.1 mg/mL primocin (InvivoGen, San Diego, CA, cat. ant-pm-2), 10% defined fetal bovine serum, heat inactivated (HyClone Laboratories Inc., Logan, UT, cat. SH30070.03HI), 50% L-WRN conditioned media (ATCC, cat. CRL-3276), 1.25 mM N-Acetyl-L-cysteine (Sigma-Aldrich, cat. A9165), 10 mM nicotinamide (Sigma-Aldrich, cat. N0636), 1X B-27 supplement (Thermo Fisher Scientific, cat. 17504044), 1X N-2 supplement (Thermo Fisher Scientific, cat. […]
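Also: spheroids exposed to compounds for one week before readout.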
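For viability, T/C in this document: percent of DMSO vehicle wells luminescence so 100% = untreated viability.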

Compound: COC1C(OC(N)=O)C(O)C(Oc2ccc3c(O)c(NC(=O)c4ccc(O)c(CC=C(C)C)c4)c(=O)oc3c2C)OC1(C)C (stereo unspecified)
- viability, T/C (compound alone 0.0316 µM): 103 (2×), 87, 35.1, 92.9, 81.4, 94.6, 95.1, 97.9, 96.7, 98.4, 98.1, 91.1%
- viability, T/C (compound alone 0.1 µM): 95.3, 99.5, 33.2, 107, 103, 104 (2×), 92.5, 102, 98, 97.1, 87.8, 94.6%
- viability, T/C (compound alone 0.316 µM): 103 (3×), 97.9, 35.9, 93.5, 106, 86.5, 101, 99.2, 96.5, 105, 93.4%
- viability, T/C (compound alone 1 µM): 97.8, 102 (2×), 38.1, 95.8 (2×), 104 (2×), 93.7, 85.3, 87.4, 97, 95.1%
- viability, T/C (compound alone 3.16 µM): 105, 93.4, 40.3, 108 (2×), 100, 97.2, 101 (3×), 104, 95.6, 115%
- viability, T/C (compound alone 10 µM): 103 (2×), 101 (2×), 40, 91.4, 111, 102, 105, 98.1, 98.8, 96.7, 95.2%
- IC50 (compound alone, run of 11/27/2023): < 31.6 nM and > 10 µM

Compound: Cc1cccc(N(C)C(=O)C2C(O)CCN2c2nc(C)cc(C(F)(F)F)c2C#N)c1 (stereo unspecified)
- viability, T/C (compound alone 0.0316 µM): 108, 89.4, 99.4, 80, 85.8, 95.4, 107, 96.1% [2023-11] and 89.3, 88.1, 85.6, 95.6, 81.9% [2023-12]
- viability, T/C (compound alone 1 µM): 97.9, 86.6, 102, 87.9, 96, 103, 101, 110% [2023-11] and 95.5, 84.9, 102, 89.8, 95.4% [2023-12]
- viability, T/C (compound alone 3.16 µM): 104 (2×), 97.8, 87.8, 92.1, 110, 92, 101% [2023-11] and 104, 106, 99.3, 101, 116% [2023-12]

Compound: CC(C)n1c(=O)n(C)c2cnc3cc(F)c(-c4ccc(OCCCN5CCCCC5)nc4)cc3c21
- viability, T/C (compound alone 1 µM): 91.1%, 114% [2023-11] and 85.5% [2023-12]

Compound: CNCc1ccc(-c2[nH]c3cc(F)cc4c3c2CCNC4=O)cc1
- viability, T/C (compound alone 0.316 µM): 101%, 74.8% [2023-11] and 99% [2023-12]

Compound: CCc1cc2c(N3CCc4c(cc(Cn5ccnc5)cc4-c4cn(C)nc4C(F)(F)F)C3=O)cc(C)nc2c(OC)n1
- viability, T/C (compound alone 3.16 µM): 143% [2023-11] and 95.4%, 97.2% [2023-12]

Compound: Nc1ccc(C#CCN(C(=O)Cc2ncc(C(F)(F)F)cc2C(F)(F)F)c2ccc(F)cc2)nn1
- viability, T/C (compound alone 0.316 µM): 84.5, 101, 90.2, 91.5, 111, 102, 88.7, 109, 110, 89.9, 86.9, 94.3, 103%

Compound: COc1cc2cc(C(=O)CCC(=O)O)sc2cc1OC
- viability, T/C (compound alone 1 µM): 96.7% [2023-11] and 120%, 90.1% [2023-12]
- viability, T/C (compound alone 10 µM): 115% [2023-11] and 117%, 88.9% [2023-12]

Compound: CCCS(=O)(=O)Nc1ccc(F)c(C(=O)c2c[nH]c3ncc(-c4ccc(Cl)cc4)cc23)c1F
- viability, T/C (compound alone 10 µM): 92.6% [2023-11] and 97.1%, 121% [2023-12]

Compound: COc1cccc2c1C(=O)c1c(O)c3c(c(O)c1C2=O)CC(O)(C(=O)CO)CC3OC1CC(N)C(O)C(C)O1 (stereo unspecified)
- viability, T/C (compound alone 0.1 µM): 95.8%, 50.8% [2023-11] and 46.8% [2023-12]

Compound: O=C(c1cc(Cc2n[nH]c(=O)c3ccccc23)ccc1F)N1CCN(C(=O)C2CC2)CC1
- viability, T/C (compound alone 0.316 µM): 103%, 90% [2023-11] and 74.3% [2023-12]
- viability, T/C (compound alone 3.16 µM): 105%, 88.2% [2023-11] and 76% [2023-12]
- viability, T/C (compound alone 10 µM): 110%, 71.1% [2023-11] and 56.6% [2023-12]
